# Laboratory results: the supplement of paper PMC10037445
# The full ranking holds about 2,900 compounds; the median of “IRF Lucia reporter activity, fold change vs agonist alone” is about 0.9, and the highest 2% start at about 2.8. The list shows a part of the results.
# Assays:
# RAW-Dual [1] = test: IRF Lucia reporter activity, fold change vs agonist alone; cytotoxicity flag (confluency mask): not cytotoxic; higher = enhanced IRF activity
# In short: (§1)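 Library stock was pin-tooled at 50 nL into 384-well plates of RAW-Dual macrophages (50,000 cells/well, DMEM), followed 1 h later by a PRR agonist, and the cells were kept at 37 °C, 5% CO2. Supernatant collected after 20 hours was read for IRF by QuantiLuc luminescence and for NF-κB by QuantiBlue absorbance at 620 nm. Reporter activity is fold change over agonist-alone wells, and a well counted as cytotoxic when its IncuCyte confluency was below 70% of agonist controls in both mask sets.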
# RAW-Dual [2] = test: IRF Lucia reporter activity, fold change vs agonist alone; cytotoxicity flag (confluency mask): cytotoxic (confluency <70% of control); higher = enhanced IRF activity
# In short: as §1
# RAW-Dual [3] = test: IRF Lucia reporter activity, fold change vs agonist alone; higher = enhanced IRF activity; details: library stock concentration (final ~1000-fold dilution): 10 mM, agonist: MPLA (TLR4) […]
# In short: as §1
# [4] = agonist: 3'3'-cGAMP (STING) 10 ug/mL
# [5] = cytotoxicity flag (confluency mask): not cytotoxic
# [6] = cytotoxicity flag (confluency mask): cytotoxic (confluency <70% of control)
structure (smiles),measurement,setting,value
COc1cc(/C=C/C(=O)N2CCC=CC2=O)cc(OC)c1OC (library stock concentration (final ~1000-fold dilution): 10 mM),IRF Lucia reporter activity,RAW-Dual [1]; [4],0.0368
same,IRF Lucia reporter activity,RAW-Dual [1]; agonist: LPS (TLR4) 0.1 ug/mL,0.0524
same,IRF Lucia reporter activity,RAW-Dual [2]; [4],0.0101
same,IRF Lucia reporter activity,RAW-Dual [2]; agonist: LPS (TLR4) 0.1 ug/mL,0.00877
COc1cc(/C=C/C(=O)N2CCC=CC2=O)cc(OC)c1OC,IRF Lucia reporter activity,RAW-Dual [3]; [5],0.0498
CCc1nc(-c2cccc(C)c2)c(-c2ccnc(NC(=O)c3ccccc3)c2)s1,IRF Lucia reporter activity,RAW-Dual [3]; [5],1.02
CCc1nc(-c2cccc(C)c2)c(-c2ccnc(NC(=O)c3ccccc3)c2)s1 (library stock concentration (final ~1000-fold dilution): 10 mM),IRF Lucia reporter activity,RAW-Dual [1]; [4],0.553
same,IRF Lucia reporter activity,RAW-Dual [1]; agonist: LPS (TLR4) 0.1 ug/mL,0.757
CCCCCC/C=C\CCCCCCCc1cccc(O)c1C(=O)O (library stock concentration (final ~1000-fold dilution): 10 mM),IRF Lucia reporter activity,RAW-Dual [1]; [4],0.776
same,IRF Lucia reporter activity,RAW-Dual [1]; agonist: LPS (TLR4) 0.1 ug/mL,0.673
CC1CC(=O)c2c(ccc3c2C(=O)c2cccc(O)c2C3=O)C1 (stereo unspecified) (library stock concentration (final ~1000-fold dilution): 10 mM),IRF Lucia reporter activity,RAW-Dual [1]; [4],0.519
same,IRF Lucia reporter activity,RAW-Dual [1]; agonist: LPS (TLR4) 0.1 ug/mL,0.878
Cn1c(=O)c2c(ncn2CC(=O)O)n(C)c1=O (library stock concentration (final ~1000-fold dilution): 10 mM),IRF Lucia reporter activity,RAW-Dual [1]; [4],1.07
same,IRF Lucia reporter activity,RAW-Dual [1]; agonist: LPS (TLR4) 0.1 ug/mL,1.25
Cn1c(=O)c2c(ncn2CC(=O)O)n(C)c1=O,IRF Lucia reporter activity,RAW-Dual [3]; [5],1.12
CS(=O)(=O)c1cccc(CNc2nc(Nc3ccc4c(c3)CCC(=O)N4)ncc2C(F)(F)F)c1,IRF Lucia reporter activity,RAW-Dual [3]; [5],0.0174
CS(=O)(=O)c1cccc(CNc2nc(Nc3ccc4c(c3)CCC(=O)N4)ncc2C(F)(F)F)c1 (library stock concentration (final ~1000-fold dilution): 10 mM),IRF Lucia reporter activity,RAW-Dual [1]; [4],0.0175
same,IRF Lucia reporter activity,RAW-Dual [1]; agonist: LPS (TLR4) 0.1 ug/mL,0.0202
CC1(C)CCC(CN2CCN(c3ccc(C(=O)NS(=O)(=O)c4ccc(NCC5CCOCC5)c([N+](=O)[O-])c4)c(Oc4cnc5[nH]ccc5c4)c3)CC2)=C(c2ccc(Cl)cc2)C1 (library stock concentration (final ~1000-fold dilution): 10 mM),IRF Lucia reporter activity,RAW-Dual [1]; [4],1.05
same,IRF Lucia reporter activity,RAW-Dual [1]; agonist: LPS (TLR4) 0.1 ug/mL,1.5
CC(C)(C)n1nc(-c2ccc(Cl)cc2)c2c(N)ncnc21,IRF Lucia reporter activity,RAW-Dual [3]; [6],0.504
CC(C)(C)n1nc(-c2ccc(Cl)cc2)c2c(N)ncnc21 (library stock concentration (final ~1000-fold dilution): 10 mM),IRF Lucia reporter activity,RAW-Dual [2]; [4],0.961
same,IRF Lucia reporter activity,RAW-Dual [2]; agonist: LPS (TLR4) 0.1 ug/mL,0.439
Cc1nc(Nc2ncc(C(=O)Nc3cc(NC(=O)c4cccc(C(F)(F)F)c4)ccc3C)s2)cc(N2CCN(CCO)CC2)n1 (library stock concentration (final ~1000-fold dilution): 10 mM),IRF Lucia reporter activity,RAW-Dual [1]; [4],0.13
same,IRF Lucia reporter activity,RAW-Dual [1]; agonist: LPS (TLR4) 0.1 ug/mL,0.118
Cc1cc(C(=O)NNCc2ccccc2)no1 (library stock concentration (final ~1000-fold dilution): 10 mM),IRF Lucia reporter activity,RAW-Dual [1]; [4],1
same,IRF Lucia reporter activity,RAW-Dual [1]; agonist: LPS (TLR4) 0.1 ug/mL,0.873
O=c1cc(-c2ccc(O)c(O)c2)oc2cc(O)c(C3OC(CO)C(O)C(O)C3O)c(O)c12 (stereo unspecified) (library stock concentration (final ~1000-fold dilution): 10 mM),IRF Lucia reporter activity,RAW-Dual [1]; [4],0.978
same,IRF Lucia reporter activity,RAW-Dual [1]; agonist: LPS (TLR4) 0.1 ug/mL,1.3
Cc1cccc(/C=N/Nc2cc(N3CCOCC3)nc(OCCc3ccccn3)n2)c1,IRF Lucia reporter activity,RAW-Dual [3]; [5],3.08
Cc1cccc(/C=N/Nc2cc(N3CCOCC3)nc(OCCc3ccccn3)n2)c1 (library stock concentration (final ~1000-fold dilution): 10 mM),IRF Lucia reporter activity,RAW-Dual [1]; [4],0.326
same,IRF Lucia reporter activity,RAW-Dual [1]; agonist: LPS (TLR4) 0.1 ug/mL,2.84
CC(Nc1cc(F)cc(F)c1)c1cc(C(=O)N(C)C)cc2c(=O)cc(N3CCOCC3)oc12 (stereo unspecified) (library stock concentration (final ~1000-fold dilution): 10 mM),IRF Lucia reporter activity,RAW-Dual [1]; [4],0.602
same,IRF Lucia reporter activity,RAW-Dual [1]; agonist: LPS (TLR4) 0.1 ug/mL,1.71
COc1cc(Nc2ncc(F)c(Nc3ccc4c(n3)NC(=O)C(C)(C)O4)n2)cc(OC)c1OC,IRF Lucia reporter activity,RAW-Dual [3]; [6],0.022
COc1cc(Nc2ncc(F)c(Nc3ccc4c(n3)NC(=O)C(C)(C)O4)n2)cc(OC)c1OC (library stock concentration (final ~1000-fold dilution): 10 mM),IRF Lucia reporter activity,RAW-Dual [2]; [4],0.0168
same,IRF Lucia reporter activity,RAW-Dual [2]; agonist: LPS (TLR4) 0.1 ug/mL,0.0234
O=C(O)CCC(=O)Nc1ccc(Br)cn1 (library stock concentration (final ~1000-fold dilution): 10 mM),IRF Lucia reporter activity,RAW-Dual [1]; [4],0.931
same,IRF Lucia reporter activity,RAW-Dual [1]; agonist: LPS (TLR4) 0.1 ug/mL,0.979
COc1ccc(C(=O)Nc2sc3c(c2C(N)=O)CCCC3)cc1OC (library stock concentration (final ~1000-fold dilution): 10 mM),IRF Lucia reporter activity,RAW-Dual [1]; [4],0.857
same,IRF Lucia reporter activity,RAW-Dual [1]; agonist: LPS (TLR4) 0.1 ug/mL,1.16
CC(=O)N1CCC(Nc2cc(C(=O)NCC(O)CN3CCc4ccccc4C3)ncn2)CC1 (stereo unspecified) (library stock concentration (final ~1000-fold dilution): 10 mM),IRF Lucia reporter activity,RAW-Dual [1]; [4],0.982
same,IRF Lucia reporter activity,RAW-Dual [1]; agonist: LPS (TLR4) 0.1 ug/mL,1.02
CC(=O)NO,IRF Lucia reporter activity,RAW-Dual [3]; [5],1.04
CC(=O)NO (library stock concentration (final ~1000-fold dilution): 10 mM),IRF Lucia reporter activity,RAW-Dual [1]; [4],1.02
same,IRF Lucia reporter activity,RAW-Dual [1]; agonist: LPS (TLR4) 0.1 ug/mL,1.17
